Where a name gives a salt, the structure may show the parent alone. The list shows a part of the results. Repeats are few or missing, and single values can be far off.

The source of these data is the supplement of paper PMC8047034.

One experiment has as its system OVCAR4. Description: log2 surviving fraction (library drug vs vehicle, or drug + carboplatin vs carboplatin alone; relative to plate median); ovarian cancer lines: OVCAR4 is platinum-sensitive and Ov4Carbo platinum-resistant; higher = more cell survival. Particulars: library drug concentration 10 µM, 7 days.
Another experiment has as its system Ov4Carbo. The experiment is described as above. Particulars: library drug concentration 10 µM, 7 days.

In the case of `CCOC(=O)C1=C[C@]2(CC)CCCN3CCc4c(n1c1ccccc41)[C@@H]32` [Vinpocetine (Cavinton)], the log2 surviving fraction in the experiment with OVCAR4 (carboplatin co-treatment 0 µM) is -0.422; in the experiment on OVCAR4 (carboplatin co-treatment 5 µM), 0.348; in the experiment on Ov4Carbo (carboplatin co-treatment 0 µM), -0.304; in the experiment with Ov4Carbo (carboplatin co-treatment 5 µM), -0.172.
On the same counts, the results for `CC(C)Cc1ccc(C(C)C(=O)O)cc1` (stereo not given) [Ibuprofen (Advil)] are -0.667, 0.778, 0.733 and 0.286.
`CN1CCC[C@H]1c1cccnc1` [Nicotine Ditartrate]: the log2 surviving fraction was 0.781 in the experiment on OVCAR4 (carboplatin co-treatment 0 µM), -0.0735 in the experiment with OVCAR4 (carboplatin co-treatment 5 µM), 0.976 with Ov4Carbo (carboplatin co-treatment 0 µM) and 1.43 in the experiment on Ov4Carbo (carboplatin co-treatment 5 µM).
Take `CCC1(c2ccccc2)C(=O)NCNC1=O` [Primidone (Mysoline)]: the log2 surviving fraction with OVCAR4 (carboplatin co-treatment 0 µM) is 0.0669; with OVCAR4 (carboplatin co-treatment 5 µM), 0.792; in the experiment on Ov4Carbo (carboplatin co-treatment 0 µM), -0.776; in the experiment on Ov4Carbo (carboplatin co-treatment 5 µM), 0.0139.
Taken in the same sequence, the figures for `Cc1nc2n(c(=O)c1CCN1CCC(c3noc4cc(F)ccc34)CC1)CCCC2` [Risperidone (Risperdal)] were 0.529, -0.564, -0.134 and -0.0218.
Turning to `COCCOC(=O)C1=C(C)NC(C)=C(C(=O)OC(C)C)C1c1cccc([N+](=O)[O-])c1` (stereo not given) [Nimodipine (Nimotop)], the log2 surviving fraction with OVCAR4 (carboplatin co-treatment 0 µM) is -0.487; in the experiment on OVCAR4 (carboplatin co-treatment 5 µM), 0.504; in the experiment with Ov4Carbo (carboplatin co-treatment 0 µM), 0.0355; with Ov4Carbo (carboplatin co-treatment 5 µM), 0.996.
As to `CC#CCn1c(N2CCC[C@@H](N)C2)nc2c1c(=O)n(Cc1nc(C)c3ccccc3n1)c(=O)n2C` [Linagliptin (BI-1356)], the log2 surviving fraction was -0.0946 in the experiment with OVCAR4 (carboplatin co-treatment 0 µM), -1.04 with OVCAR4 (carboplatin co-treatment 5 µM), -1.21 in the experiment with Ov4Carbo (carboplatin co-treatment 0 µM) and -1.05 with Ov4Carbo (carboplatin co-treatment 5 µM).
In the case of `OC(CNCC(O)C1CCc2cc(F)ccc2O1)C1CCc2cc(F)ccc2O1` (stereo not given) [Nebivolol (Bystolic)], the log2 surviving fraction with OVCAR4 (carboplatin co-treatment 0 µM) is -6.94; in the experiment with OVCAR4 (carboplatin co-treatment 5 µM), -6.17; in the experiment with Ov4Carbo (carboplatin co-treatment 0 µM), -6.96; in the experiment on Ov4Carbo (carboplatin co-treatment 5 µM) it was -6.63.
On the same counts, the results for `COC(=O)C1=C(C)NC(C)=C(C(=O)OCC(C)C)C1c1ccccc1[N+](=O)[O-]` (stereo not given) [Nisoldipine (Sular)] are 0.0308, -0.526, -0.981 and -0.587.
`C=C[C@]1(C)C[C@@H](OC(=O)CSC(C)(C)CNC(=O)[C@H](N)C(C)C)[C@]2(C)[C@H](C)CC[C@]3(CCC(=O)[C@H]32)[C@@H](C)[C@@H]1O` [Valnemulin HCl]: the log2 surviving fraction in the experiment with OVCAR4 (carboplatin co-treatment 0 µM) was -1.63; in the experiment on OVCAR4 (carboplatin co-treatment 5 µM), -0.836; in the experiment with Ov4Carbo (carboplatin co-treatment 0 µM), -2.52; in the experiment on Ov4Carbo (carboplatin co-treatment 5 µM), -2.24.
